SMILES strings stand for the structures. About 1,700 (3.3%) of roughly 52,000 compounds were called active. Cut-off read from the data, not from the text of the source: active = survival mostly below about 52% (no sharp cut-off); inactive = mostly above about 56%. This is one part of the list.

In this assay the test system is Wild type. As to the kind of experiment: growth inhibition of S. aureus wild type versus tarO mutant, primary screen, teichoic acid synthesis inhibitors, RN4220, OD600 (AID 463173). As to conditions: S. aureus RN4220 wild type/DeltatarO growth, OD600, 18 h, stronger effect = lower value, screened at 18.75 µg/mL (by protocol).
On to `CCOC(=O)c1cc(OC(=O)c2cccc(F)c2)n(-c2ccccc2)n1`, for which the survival was inactive: 79%.
With `O=C(O)CNC(=O)c1nc2ncccn2n1` the figure was inactive: 105%; with `O=C(NCc1cccnc1)C1CCN(Cc2cc3ccccc3n2Cc2ccccc2)CC1`, inactive: 131%; with `O=C(NN=C1CCCCC1)c1cccc(N2CCCC2=O)c1`, inactive: 93%.
With `CCOc1ccc(N(C(=O)c2ccc(OC)cc2)S(=O)(=O)c2ccc3c(c2)n(C)c(=O)n3C)cc1` the figure was inactive: 78%.
As to `CCC(=O)C1=C(c2ccc(F)cc2)N(C(=O)CC)n2c(nnc2C2CCCCC2)S1`, the survival was inactive: 78%.
Under `CCC(=O)OC1=CN(Cc2ccccc2)S(=O)(=O)c2ccccc21` stands inactive: 78%; under `CC(C)c1ccc(NC(=O)CN2C=NS(=O)(=O)c3ccccc32)cc1`, inactive: 90%; under `O=C(CCc1ccccc1)Nc1nnc(CCN2CCCCC2)s1`, inactive: 97%.
With `COC(=O)c1cc2oc(C)cc2n1Cc1ccc(C)cc1` the figure was inactive: 68%.
Under `Cc1cc(C)cc(NC(=O)CSc2nnc(CNC(=O)c3c(F)cccc3Cl)o2)c1` stands inactive: 122%; under `CCN(CC)S(=O)(=O)c1ccc2c(c1)N(CC(=O)Nc1c(C)cc(C)cc1C)C(=O)CS2`, inactive: 80%.
In the case of `CCOC(=O)CCn1ccc(=O)[nH]c1=O`, the survival was inactive: 117%.
As to `N#C/C(=C\c1c(Oc2ccc(F)cc2)nc2ccccn2c1=O)c1nc2ccccc2s1`, the survival is inactive: 73%.
Under `Cc1cccc(N2CCN(C(=O)CN3C(=O)COc4ccc(S(=O)(=O)N5CCCC5)cc43)CC2)c1C` stands inactive: 81%.
Under `CCOc1ccc(CCNC(=O)Cn2nc(CC)n3c(cc4c(OC)cccc43)c2=O)cc1OCC` stands inactive: 134%.
Under `COc1cc2cc(C)c(SCC(=O)N3CCN(C(=O)c4ccco4)CC3)nc2cc1OC` stands inactive: 106%.
For the compound `CCc1ccc(CNC(=O)C2CCN(C(=O)c3ccc(-n4ccc5ccccc54)s3)CC2)cc1`, the survival was inactive: 67%.
With `CCCOc1ccc(C(=O)Nc2sc3c(c2C(=O)OCC)CCCCC3)cc1` the figure was inactive: 27%; with `O=C1CC(c2ccc(F)cc2)c2c(n3c(nc4ccccc43)[nH]c2=O)N1` (stereo not drawn), inactive: 83%; with `CC(C)N(C(C)C)S(=O)(=O)c1ccccc1`, inactive: 112%.
Under `Cc1oc(-c2cccc(Br)c2)nc1CSc1nc2ncccc2[nH]1` stands inactive: 77%.
Under `Cc1ccccc1CS(=O)(=O)c1ncc(Cl)c(C(=O)Nc2nnc(C(C)C)s2)n1` stands inactive: 47%; under `COc1ccc(N2CCN(C(=O)c3cn(C)c4ccc(S(=O)(=O)N(C)C5CCCCC5)cc4c3=O)CC2)cc1`, inactive: 85%; under `COc1cc2ccccc2cc1C(=O)Nc1cccc(-c2nc3ccccc3o2)c1`, active: 1%.
Turning to `Cc1ccccc1NC(=O)CCOc1ccccc1`, the survival is inactive: 74%.
With `Cc1ccc(NC(=O)c2c(C(=O)Nc3ccccc3)sc3nc(C)cc(=O)n23)cc1` the figure was inactive: 87%; with `COc1ccc(CNC(=O)C2CCN(S(=O)(=O)c3c(C)noc3/C=C/c3cccs3)CC2)cc1`, inactive: 93%; with `CC(C(=O)NCc1cccc(Br)c1)n1ncn2cccc2c1=O` (stereo not drawn), inactive: 86%.
Under `Cc1ccc(NC(=O)c2cc(CN3CCOCC3)on2)cc1Cl` stands inactive: 131%.
With `Cc1ccccc1S(=O)(=O)Cc1ccc(C(=O)NCc2ccccc2Cl)o1` the figure was inactive: 69%.
In the case of `Nc1nn(-c2ccccc2)nc1C(=O)OCc1ccccc1Br`, the survival was active: -2%.
With `Cn1cc(-c2cc3n(n2)CCC(=O)N3CCCC(=O)Nc2ccccc2Cl)c2ccccc21` the figure was active: -6%; with `COc1cc(-c2nc3ccc(Cl)cn3c2Nc2ccc3c(c2)OCO3)ccc1O`, inactive: 61%.
With `CC1=C(C(=O)Nc2ccc(C)cc2Cl)C2(CCCCC2)OC1=O` the figure was inactive: 104%; with `COc1ccc2c(c1)CCc1c(C(=O)Nc3c(C)nn(Cc4c(Cl)cccc4Cl)c3C)noc1-2`, inactive: 106%.
With `O=C(c1cccs1)c1cn(CCOc2ccc(F)cc2)c2ccccc12` the figure was inactive: 82%; with `CCOC(=O)c1c(C)[nH]c(C)c1S(=O)(=O)NCC(=O)Nc1ccc(CC)cc1`, inactive: 80%; with `CCc1ccccc1NC(=O)c1cc2sc(Cl)cc2n1CC`, inactive: 90%.
Regarding `Cc1cccc(NC(=O)CC2S/C(=N/c3nccs3)N(C)C2=O)c1` (stereo not drawn), the survival is inactive: 114%.
With `CC(Sc1nc(-c2ccccc2)cc(C(F)(F)F)n1)C(=O)NN1CCCCC1` (stereo not drawn) the figure was inactive: 117%; with `O=C(Cn1cnc2onc(-c3ccc(F)cc3)c2c1=O)N1CCN(c2ccccc2F)CC1`, inactive: 71%.
With `CCOC(=O)c1noc2ncn(CC(=O)Nc3cc(Cl)ccc3OC)c(=O)c12` the figure was inactive: 76%; with `O=C(O)Cc1sc(Nc2ccc(C(=O)O)cc2)nc1-c1ccccc1`, inactive: 70%.
Under `CCOc1ccccc1CNC(=O)CCCN1C(=O)COc2ccc(C)cc21` stands inactive: 112%.
With `COc1ccc(-c2cn(-c3ccc(C)cc3)c(S(=O)(=O)CC(=O)Nc3ccccc3)n2)cc1`, the survival is inactive: 132%.
Under `CC(C)c1ccccc1NC(=O)CSc1nnc(COc2ccccc2)o1` stands inactive: 91%; under `Cc1ccc(CNC(=O)CN(C)S(=O)(=O)c2ccc(Br)s2)cc1`, inactive: 135%; under `Cc1oc2ncn(CC(C)C)c(=O)c2c1C(=O)Nc1cccc(C(F)(F)F)c1`, active: -3%.
Under `O=C(Nc1ccc(Cl)c(Cl)c1)c1cc(S(=O)(=O)N2CCN(c3cccc(Cl)c3)CC2)ccc1F` stands inactive: 74%; under `Cc1cc(Br)ccc1NC(=O)c1coc(=O)c2ccccc12`, inactive: 106%; under `COc1ccc(-c2nnc(SCC(=O)Nc3ccccc3C)o2)cc1OC`, inactive: 85%.
Under `COc1ccccc1CC(=O)NC1CC(C)(C)NC(C)(C)C1` stands inactive: 115%; under `O=S1(=O)CCC(N2C(=S)SC3CS(=O)(=O)CC32)C1` (stereo not drawn), inactive: 107%; under `COc1ccc(N(C(=O)c2ccco2)C(C(=O)NC2CCCC2)c2cc(OC)c(OC)c(OC)c2)cc1` (stereo not drawn), inactive: 110%.
As to `O=C(NCCCCc1ccccc1)c1nn(-c2ccccc2F)nc1CO`, the survival was inactive: 87%.
Take `CC(C)OCCCn1c(SCC(N)=O)nc2c(sc3ccccc32)c1=O`: the survival was inactive: 76%.
Regarding `O=C(c1ccc(CS(=O)c2ccccc2Cl)o1)N1CCN(c2cccc(C(F)(F)F)c2)CC1` (stereo not drawn), the survival is inactive: 49%.

The values are drawn from PubChem BioAssay AID463173 (ICCB-Longwood Screening Facility, Harvard Medical School, 2010).
